Data on 23 molecules can be found in ChEMBL document CHEMBL4888484, “Replenishing the malaria drug discovery pipeline: Screening and hit evaluation of the MMV Hit Generation Library 1 (HGL1) against asexual blood stage Plasmodium falciparum ,using a nano luciferase reporter read-out” (2022).

The structures appear in SMILES notation. About 540 (0.36%) of roughly 150,000 compounds showed an effect of 50% or more. The list shows a part of the results.

As usually defined, the % Inhibition is the relative decrease from the control value, in per cent.

This experiment relates to Plasmodium falciparum. In words: Primary screen in NF54 nanoGlo assay, in single point, at 2uM, 72h; a lower Z score goes with more inhibition. The experiment is classed as functional, Erythrocyte. The note with it: timepoint 72 hour.
As for `Cc1ccc(CC(=O)Nc2nnn(Cc3ccccc3F)c2C)cn1`, the “% Inhibition” value is listed as -18% and the Z score worked out at 1.88.

Turning to `Cc1ccccc1C1=NO[C@@H](CN(Cc2ccc(F)cc2)C(=O)NC(C)(C)C)C1`, the “% Inhibition” value is -16% and the Z score came out at 1.61.

For `COCCN1CCC[C@H]1c1nc(C2CN(S(=O)(=O)c3cccc(OC)c3)C2)no1`, the “% Inhibition” value is 11% and the Z score is reported as -1.33.

In the case of `O=C1C[C@H](c2c(F)cccc2F)c2ncn(-c3cccnc3)c2N1`, the “% Inhibition” value amounted to 6% and the Z score is given as -0.81.

Take `O=C(c1ccccc1Cl)N1CCN(S(=O)(=O)C2CC2)CC1`: the “% Inhibition” value is recorded as -8% and the Z score was 1.12.

In the case of `Cc1cc(N2CCOC[C@@H]2C)n2ncnc2n1`, the “% Inhibition” value is -6% and the Z score was 0.76.

Turning to `Cc1ccc(N(C(=O)c2cc(C3CC3)no2)C2CCCCC2)nc1`, the “% Inhibition” value was -12% and the Z score worked out at 1.26.

In the case of `O=C(NCCc1ccccc1)[C@@H]1CCN1C(=O)c1ccccc1`, the “% Inhibition” value was -32% and the Z score came out at 3.76.

On to `CCCCc1nc(N2CCN(C(=O)COC)CC2)c2c(-c3ccc4ccccc4c3)noc2n1`, for which the “% Inhibition” value is on record as -1% and the Z score stood at 0.06.

In the case of `Cc1cc(=O)c(C(=O)Nc2cccc(-c3csc(C)n3)c2)c[nH]1`, the “% Inhibition” value was -13% and the Z score is 1.11.

For `CC1CC(C(=O)N2CCN(Cc3ccc(-c4ccccc4F)s3)CC2)CCO1` (stereo unspecified), the “% Inhibition” value is given as -16% and the Z score is recorded as 1.39.

Take `Cc1csc([C@H](C)NC(=O)c2cc3ncc(CCO)cn3n2)n1`: the “% Inhibition” value is -3% and the Z score is given as 0.42.

Take `O=C1CN(C(=O)c2cc3c(s2)CCCCC3)CCN1`: the “% Inhibition” value is -9% and the Z score was 1.38.

As to `O=C(CS(=O)(=O)c1nnnn1C1CCCCC1)Nc1ccc(F)cc1`, the “% Inhibition” value is on record as 1% and the Z score is listed as -0.11.

As for `Cn1nc(-c2nccn2CCCn2ccnc2)c2c(Cl)cccc21`, the “% Inhibition” value is listed as -13% and the Z score stood at 1.25.

On to `O=C(CCc1cscn1)NCC1CC12CCc1ccccc12` (stereo unspecified), for which the “% Inhibition” value is -17% and the Z score is 1.85.

Take `C[C@]1(O)CCN(C(=O)c2cc(C3CC3)no2)C[C@H]1Cc1ccccc1`: the “% Inhibition” value worked out at 8% and the Z score was -1.05.

With `CCn1cc(C(=O)C(=O)N(C)[C@H](c2ccccc2)C(F)(F)F)cn1`, the “% Inhibition” value is recorded as -4% and the Z score came out at 0.47.

Turning to `CCc1cnc(C)nc1N1CCC(NCc2cc(COC)[nH]n2)CC1`, the “% Inhibition” value was -6% and the Z score is 1.12.

As to `CN1CCn2ccnc2C12CCN(S(=O)(=O)c1cc(F)ccc1F)CC2`, the “% Inhibition” value is reported as -3% and the Z score worked out at 0.35.

For `O=C(NCCc1ccon1)c1cc(Br)cnc1C1CC1`, the “% Inhibition” value turned out to be 1% and the Z score was -0.08.

For `Cc1cc(Cn2ccc(-c3cccc(-c4c(C)n(C)c(=O)n(C)c4=O)c3)n2)no1`, the “% Inhibition” value is listed as -3% and the Z score was found to be 0.49.

As to `Cc1nc(CN(C)c2ncncc2C(=O)O)cs1`, the “% Inhibition” value was found to be 0% and the Z score is recorded as 0.04.
